Assay results reported in the supplement of paper PMC5499739.
Whole data set: some 16,000 sequences, median “Z-score” near -0.37, cut for the highest 2% near 3.2. Some of the results follow.

Tested on: RBM10 RRM1-ZnF (GST-tagged construct)
Assay: RNAcompete 7-mer binding Z-score; higher = stronger binding preference
Method in brief: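 GST-tagged RBM10 constructs (20 pmol) were mixed with a designed pool of 241 399 RNAs up to 41 nt (1.5 nmol), transcribed from microarray-derived DNA templates. Mixing was in 1 ml Hepes pH 7.8 buffer with KCl, NaCl, glycerol, DTT, BSA and glutathione Sepharose beads. Binding ran 30 min at 4°C, followed by four 2-min washes at 4°C, and bound RNA was identified by microarray hybridisation. Each heptamer motif received a one-sided Z-score for enrichment across probes containing it.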

Row | Sequence | RNAcompete 7-mer binding Z-score
1 | CCACUGU | -0.607
2 | CCCUACC | -0.655
3 | UUUCGCA | -0.834
4 | AUGACAU | -0.259
5 | UCGCCCU | -0.756
6 | AAAGUCA | -0.298
7 | GGGGCGG | 2.7
8 | GACUCCU | -0.763
9 | AGUGCGA | 0.742
10 | UCACAUA | -0.675
11 | GAAACAA | 0.0853
12 | AUAGACG | 0.261
13 | CUUCAAG | -0.574
14 | UUGACCA | -0.591
15 | AUUGAUG | 0.238
16 | CAAAGAG | 0.225
17 | GACGAUA | -0.113
18 | CGCACGA | -0.132
19 | AAGAUUC | -0.522
20 | GGAGAGC | 1.84
21 | CGGCUGG | 0.576
22 | UCGAGUG | 0.0138
23 | CCGUAGA | -0.409
24 | UCCGUCC | -0.746
25 | UGGUCGC | 0.0105

Row | Sequence | RNAcompete 7-mer binding Z-score
26 | AUCUGUA | -0.581
27 | UAUUAUA | -0.386
28 | UGGCAGU | 0.283
29 | AGGCAAA | 0.309
30 | UCCCGGC | -0.561
31 | GUGCUCC | -0.24
32 | CGCCGCU | -0.578
33 | CGUUGUA | -0.363
34 | CAUAGAG | 0.0235
35 | AAGAUAA | -0.0707
36 | CUUAGGG | 0.472
37 | GGAUCCA | -0.223
38 | GCCUUUU | -0.984
39 | GCAUACG | 0.0365
40 | GGUCUUU | -0.422
41 | CAGGAGU | 1.51
42 | GGAGCAC | 1.51
43 | UAUCGUA | -0.396
44 | CCAAUCC | -0.837
45 | AGGGUAA | 4.13
46 | CUUCUCA | -0.889
47 | UGUCCGG | -0.0869
48 | GUCCAUG | -0.422
49 | GGUUCCC | 0.0138
50 | ACGAGUC | -0.496

Row | Sequence | RNAcompete 7-mer binding Z-score
51 | UACAACC | -0.545
52 | ACUCAGA | -0.539
53 | CACACAU | -0.584
54 | UGCGCAA | -0.438
55 | UGGAGAU | 1.26
56 | GCGAUUA | -0.197
57 | UAUGCCU | -0.776
58 | CAGCAUU | -0.604
59 | CUCAACG | -0.701
60 | CACAAUG | -0.474
61 | UCCUCAG | -0.678
62 | CCGUCGA | -0.311
63 | GGCUGAG | 1.3
64 | GAUGUUA | -0.116
65 | ACGAUCG | -0.249
66 | CCCGCCC | -0.233
67 | UUAUUCG | -0.73
68 | GUGUCUG | 0.173
69 | GCAGACC | -0.321
70 | GGCCGCA | -0.509
71 | GAAGGAG | 4.72
72 | UGCACGA | -0.0414
73 | ACAUGAC | -0.571
74 | ACCGAGC | -0.448
75 | CUUGCGG | -0.0382

Row | Sequence | RNAcompete 7-mer binding Z-score
76 | AUGUCCC | -0.711
77 | CACUCGG | -0.0187
78 | CGGGGCC | 0.621
79 | AAUACUG | -0.246
80 | ACAUUAG | -0.285
81 | AUUAUGC | -0.587
82 | GAGAUAC | 0.153
83 | ACGCUAC | -0.613
84 | GCUAAGU | -0.298
85 | CUCCGCA | -0.568
86 | GUCAUAG | -0.0674
87 | CUACGAC | -0.785
88 | UAGCGAG | 0.826
89 | GAGGUAA | 2.23
90 | AAGCAUC | -0.376
91 | UGGCGAA | 0.761
92 | UGAAACG | -0.119
93 | AAUUUGA | -0.399
94 | AGGUCGA | 0.29
95 | GCAAAAG | 0.397
96 | UAGCCGC | -0.487
97 | CCAGUAC | -0.584
98 | CACGACG | -0.0577
99 | ACUCAGC | -0.639
100 | AAAGGUC | 0.852
